From patent US20100183584A1 (UNIVERSITY OF MIAMI, published 2010)

Molecular target: T1, native RGS7-Gβ5 complex from mouse brain extract (mouse, UniProt P62881 1-353; O54829 1-469, limits assumed)
T1 construct: Native complex in a cholate extract of brain membranes; may also carry R7BP; also called native Gβ5-RGS7; Gβ5-RGS complexes (brain)
T1 sequence (looked up) 1: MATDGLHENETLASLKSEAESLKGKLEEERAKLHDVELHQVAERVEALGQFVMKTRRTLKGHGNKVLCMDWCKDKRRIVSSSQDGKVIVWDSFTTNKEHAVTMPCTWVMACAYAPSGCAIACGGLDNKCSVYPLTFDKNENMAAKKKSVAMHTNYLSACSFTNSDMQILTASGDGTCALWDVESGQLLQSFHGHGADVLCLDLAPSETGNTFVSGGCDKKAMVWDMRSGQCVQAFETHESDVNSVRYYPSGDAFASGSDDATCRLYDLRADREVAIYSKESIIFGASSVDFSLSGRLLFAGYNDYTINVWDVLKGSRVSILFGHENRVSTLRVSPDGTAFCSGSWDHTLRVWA
T1 sequence (looked up) 2: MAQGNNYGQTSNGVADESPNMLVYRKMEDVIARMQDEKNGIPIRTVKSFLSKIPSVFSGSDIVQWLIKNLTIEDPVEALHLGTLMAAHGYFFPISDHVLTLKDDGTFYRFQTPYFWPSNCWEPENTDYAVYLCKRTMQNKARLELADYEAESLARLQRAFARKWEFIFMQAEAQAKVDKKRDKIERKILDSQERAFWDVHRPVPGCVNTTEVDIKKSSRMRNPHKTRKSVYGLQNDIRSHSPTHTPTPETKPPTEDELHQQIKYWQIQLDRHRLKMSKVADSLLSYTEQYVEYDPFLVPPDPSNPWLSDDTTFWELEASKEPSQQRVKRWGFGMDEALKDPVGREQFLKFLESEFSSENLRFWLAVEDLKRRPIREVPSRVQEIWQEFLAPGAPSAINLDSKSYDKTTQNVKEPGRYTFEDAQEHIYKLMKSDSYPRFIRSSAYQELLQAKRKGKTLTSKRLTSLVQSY
Test: GST pull-down from mouse brain extract, western blot with anti-RGS7 and anti-Gβ5; D: densitometry [1B, 1D]

binding result: no binding
B1: GST (other)
chain: not shown
notes: Negative control in pull-down and FRET assays; also called GST alone; immobilized GST
